Reference: patent US9833497B2, “Human originated EGF domain proteins and use of the same” (CHENGDU SOURCEBIO LIMITED-LIABILITY COMPANY, priority 2013, dated 2017)

Columns and labels:
Assay type in all cases: cell-based
Citrobacter diversus = test: MIC against Gram-negative bacteria: Citrobacter diversus; details: 5×10^5 CFU/mL
Protocol: (§1) 1. Gram-negative bacteria, such as E. coli BL21, Pseudomonas aeruginosa, Klebsiella pneumonia, Enterobacter cloacae, Aeromonas hydrophila, Citrobacter diversus, Moraxella catarrhalis, Proteus mirabilis, Proteus vulgaris, Serratia marcescens, etc were streaked on solid LB medium and cultured respectively. Then, typical clones were picked, inoculated into common liquid LB medium respectively, and cultured at 37° C. with shaking at 185 rpm until the McFarland specific turbidity was 0.5. The bacterial culture of each of Gram-negative bacteria was centrifuged at 4000×g for 3 min, the supernatant was discarded, and the thalli were resuspended with fresh LB medium.
(§2) 2. The above-mentioned bacterial suspensions were diluted and inoculated into 96-well plates with the final concentration of the bacterial suspension being 5×10^5 CFU/mL per well.
(§3) 3. Each of the purified human-originated EGF domain proteins (PRT1 to PRT1498 in Table 1) was added to each of the above wells and subjected to two-fold serial dilution in concentration. Three parallel wells were set up for each concentration in the gradient.
(§4) 4. The above-mentioned 96-well plates were placed and cultured at 37° C. in shaking incubator shaking at 175 rpm. […] The minimal inhibitory concentration MIC is defined as the lowest concentration of the recombinant protein at which there is no growth of the bacteria.

Klebsiella pneumonia = test: MIC against Gram-negative bacteria: Klebsiella pneumonia; details: 5×10^5 CFU/mL
Protocol: as §1, §2, §3, §4

Pseudomonas aeruginosa = test: MIC against Gram-negative bacteria: Pseudomonas aeruginosa; details: 5×10^5 CFU/mL
Protocol: as §1, §2, §3, §4

Enterobacter cloacae = test: MIC against Gram-negative bacteria: Enterobacter cloacae; details: 5×10^5 CFU/mL
Protocol: as §1, §2, §3, §4

E. coli DH5α = test: Antibacterial activity: MIC and growth curve against E. coli DH5α in 96-well plate; details: minimal inhibitory concentration against E. coli DH5α, 5×10^5 CFU/mL, 37° C., judged after 8 h
Protocol: 1. E. coli DH5α was exemplified. E. coli DH5α was streaked and cultured on LB solid medium. Then, a typical clone was picked and inoculated into common LB liquid medium, cultured at 37° C. with shaking at 185 rpm until the logarithmic growth phase was reached (OD600 of about 0.5). The bacterial culture was centrifuged at 4000×g for 3 min, the supernatant was discarded, and the thalli were resuspended with fresh LB medium.
2. The above-mentioned bacterial suspension was diluted and inoculated into a 96-well plate with the total volume of 100 μL per well and a bacterial count of 5×10^5 CFU/mL.
3. The recombinant protein hF VII-EGF1 was added to the above-mentioned wells with the final protein concentration in the well of the highest protein concentration being 50 μg/mL. Basing on this final concentration, a two-fold serial dilution was performed till a protein concentration gradient consisting of 50, 25, and 12.5 μg/mL was set up. Three parallel wells were set up for each concentration in the gradient.
4. The above-mentioned 96-well plate was placed and cultured at 37° C. in shaking incubator shaking at 175 rpm. Samples were taken every 30 min, the absorbance values were determined at 600 nm wavelength under a ultra violet spectrophotometer, and an inhibition curve was plotted. […] The minimal inhibitory concentration MIC is defined as the lowest concentration of the recombinant protein at which there is no growth of the bacteria.
According to the experimental procedures in Example 14, the minimal inhibitory concentrations (MIC, μg/mL) of the other human-originated EGF domain proteins (PRT2 to PRT1498 in Table 1) for E. coli DH5α were determined.

E. coli BL21 = test: MIC against Gram-negative bacteria: E. coli BL21; details: 5×10^5 CFU/mL
Protocol: as §1, §2, §3, §4

Proteus vulgaris = test: MIC against Gram-negative bacteria: Proteus vulgaris; details: 5×10^5 CFU/mL
Protocol: as §1, §2, §3, §4

Aeromonas hydrophila = test: MIC against Gram-negative bacteria: Aeromonas hydrophila; details: 5×10^5 CFU/mL
Protocol: as §1, §2, §3, §4

Moraxella catarrhalis = test: MIC against Gram-negative bacteria: Moraxella catarrhalis; details: 5×10^5 CFU/mL
Protocol: as §1, §2, §3, §4

Proteus mirabilis = test: MIC against Gram-negative bacteria: Proteus mirabilis; details: 5×10^5 CFU/mL
Protocol: as §1, §2, §3, §4

Serratia marcescens = test: MIC against Gram-negative bacteria: Serratia marcescens; details: 5×10^5 CFU/mL
Protocol: as §1, §2, §3, §4

[1] = 10 h cultivation at 37° C., two-fold serial dilution

Row | Substance | MIC (μg/mL) C. diversus (Citrobacter diversus; 10 h cultivation at 37° C.) [µg/mL] | MIC (μg/mL) K. pneumonia (Klebsiella pneumonia; 10 h cultivation at 37° C.) [µg/mL] | MIC (μg/mL) P. aeruginosa (Pseudomonas aeruginosa; 10 h cultivation at 37° C.) [µg/mL] | MIC (μg/mL) E. cloacae (Enterobacter cloacae; 10 h cultivation at 37° C.) [µg/mL] | MIC (E. coli DH5α) [µg/mL] | MIC (μg/mL) E. coli BL21 (E. coli BL21; 10 h cultivation at 37° C.) [µg/mL] | MIC (μg/mL) P. vulgaris (Proteus vulgaris; 10 h cultivation at 37° C.) [µg/mL] | MIC (μg/mL) A. hydrophila (Aeromonas hydrophila; 10 h cultivation at 37° C.) [µg/mL] | MIC (μg/mL) M. catarrhalis (Moraxella catarrhalis; 10 h cultivation at 37° C.) [µg/mL] | MIC (μg/mL) P. mirabilis (Proteus mirabilis; 10 h cultivation at 37° C.) [µg/mL] | MIC (μg/mL) S. marcescens (Serratia marcescens; 10 h cultivation at 37° C.) [µg/mL] | further results
1 | PRT193 (GVHECAMQCHGRGVCNNRKNCHCEAHWAPPFCD; listed as Homo sapiens) | 25 | 12.5 | 50 | 12.5 | 50 | 100 | 12.5 | 12.5 | 12.5 | 25 | 25 | –
2 | PRT667 (DINECEQPGVCSGGQCTNTEGSYHCECDQGYIMVRKGHCQ; listed as Homo sapiens) | – | – | – | – | 50 | – | – | – | – | – | – | MIC C. diversus (Citrobacter diversus; 96-well plate, 37° C., 10 h): 12.5 µg/mL; MIC K. pneumonia (Klebsiella pneumonia; 96-well plate, 37° C., 10 h): 50 µg/mL; MIC P. aeruginosa (Pseudomonas aeruginosa; 96-well plate, 37° C., 10 h): 12.5 µg/mL; MIC E. cloacae (Enterobacter cloacae; 96-well plate, 37° C., 10 h): 12.5 µg/mL; MIC E. coli BL21 (E. coli BL21; 96-well plate, 37° C., 10 h): 25 µg/mL; MIC P. vulgaris (Proteus vulgaris; 96-well plate, 37° C., 10 h): 12.5 µg/mL; MIC A. hydrophila (Aeromonas hydrophila; 96-well plate, 37° C., 10 h): 50 µg/mL; MIC M. catarrhalis (Moraxella catarrhalis; 96-well plate, 37° C., 10 h): 50 µg/mL; MIC P. mirabilis (Proteus mirabilis; 96-well plate, 37° C., 10 h): 25 µg/mL; MIC S. marcescens (Serratia marcescens; 96-well plate, 37° C., 10 h): 50 µg/mL
3 | PRT860 (CKCNGHASRCLLDTQGHLICDCRHGTEGPDCGRCKPFYCDRPWQRATARESHAC; listed as Homo sapiens) | 12.5 | 50 | 25 | 12.5 | 25 | 12.5 | 50 | 50 | 50 | 12.5 | 100 | –
4 | PRT1124 (AECFPACNPQNGFCEDDNVCRCQPGWQGPLCD; listed as Homo sapiens) | – | – | – | – | 25 | – | – | – | – | – | – | MIC C. diversus (Citrobacter diversus; [1]): 12.5 µg/mL; MIC K. pneumonia (Klebsiella pneumonia; [1]): 12.5 µg/mL; MIC P. aeruginosa (Pseudomonas aeruginosa; [1]): 25 µg/mL; MIC E. cloacae (Enterobacter cloacae; [1]): 25 µg/mL; MIC E. coli BL21 (E. coli BL21; [1]): 50 µg/mL; MIC P. vulgaris (Proteus vulgaris; [1]): 50 µg/mL; MIC A. hydrophila (Aeromonas hydrophila; [1]): 50 µg/mL; MIC M. catarrhalis (Moraxella catarrhalis; [1]): 50 µg/mL; MIC P. mirabilis (Proteus mirabilis; [1]): 12.5 µg/mL; MIC S. marcescens (Serratia marcescens; [1]): 12.5 µg/mL
5 | PRT814 (QEICPACQHAARCDPETGACLCLPGFVGSRCQ; listed as Homo sapiens) | 12.5 | 12.5 | 50 | 12.5 | 25 | 25 | 12.5 | 25 | 25 | 12.5 | 12.5 | –
